{"source": "PubChem BioAssay AID485294", "about": "(National Center for Advancing Translational Sciences (NCATS), 2010)", "note": "Screen size: about 370,000 compounds; about 150 (0.041%) were called active. The inconclusive results got no clear call from the source; some entries with a clear call stand among them for comparison. The call rests on the fitted dose curve; in most records, active means well fitted inhibition curve with a large enough effect; inconclusive means small, poorly fitted or top-dose-only effect; inactive means flat fitted curve, though single readings scatter. Potencies of inconclusive entries are left out as doubtful fits. Potency means the concentration at half of the fitted maximal effect; tags describe the fitted curve by direction and shape.", "data": [{"target": "Beta-lactamase (Escherichia coli (strain K12)) (UniProt P00811)", "sequence (P00811 whole entry, looked up)": "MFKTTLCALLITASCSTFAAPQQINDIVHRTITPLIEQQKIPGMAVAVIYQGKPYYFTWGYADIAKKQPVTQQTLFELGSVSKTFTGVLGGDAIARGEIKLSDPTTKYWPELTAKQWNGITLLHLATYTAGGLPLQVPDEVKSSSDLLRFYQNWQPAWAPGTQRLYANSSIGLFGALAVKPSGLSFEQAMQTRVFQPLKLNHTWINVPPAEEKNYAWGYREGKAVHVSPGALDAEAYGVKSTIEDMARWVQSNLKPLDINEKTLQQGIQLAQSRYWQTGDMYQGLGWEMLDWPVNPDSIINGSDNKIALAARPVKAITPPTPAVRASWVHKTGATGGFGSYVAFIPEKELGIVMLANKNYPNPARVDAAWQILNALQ", "assay": "qHTS Inhibitors of AmpC Beta-Lactamase (assay with detergent); further: nearly all actives have a fitted effect of over 25% in size;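 on activity change, negative = inhibition: 0% = no-compound wells and -100% = no-enzyme wells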", "settings": "AmpC hydrolysis of nitrocefin, absorbance 480 nm, 0.01% Triton; activity change, negative = inhibition: at 114 µM (top of the series)", "how_it_was_run": "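20 mM phosphate pH 7.0 + 0.01% (detergent screen) or 0.0001% Triton X-100; 5.3 nM AmpC reagent; cpd preinc 15 min RT; nitrocefin (800 uM stock) to start; A480 q20 s × 4 min; Activity was normalised to no-enzyme and no-compound control wells.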", "values": [{"smiles": "CC(=O)n1cc(/C=C2/N=C(c3ccccc3)OC2=O)c2ccccc21", "Potency": "inconclusive [inhibitor, full curve]"}, {"smiles": "CCC(=O)Nc1sc2c(c1C#N)CCCCC2", "Potency": "inconclusive [inhibitor, full curve]"}, {"smiles": "COC(=O)[C@]1(CC(C)C)N[C@H](c2ccc(-c3ccc(OC)cc3)cc2)[C@@H]2C(=O)N(C)C(=O)[C@@H]21", "activity change, negative = inhibition": "inactive: -12%"}, {"smiles": "Cc1c(NC(=O)c2ccc(F)cc2)c(=O)n(-c2ccccc2)n1C", "Potency": "inconclusive [inhibitor, full curve, poor fit]"}, {"smiles": "CC1CN(C(=O)/C=C/c2ccccc2[N+](=O)[O-])CC(C)O1", "note": "(centres undefined)", "activity change, negative = inhibition": "inactive: -10.4%"}, {"smiles": "Cc1cc(C(=O)Nc2ccc3c(c2)OCO3)cs1", "Potency": "inconclusive [inhibitor, full curve, poor fit]"}, {"smiles": "O=C(NCCc1nc2ccccc2[nH]1)/C(=C/c1ccco1)NC(=O)c1ccccc1Br", "activity change, negative = inhibition": "inactive: -2.83%"}, {"smiles": "CSc1ccccc1C(=O)N1CCOCC1", "Potency": "inconclusive [inhibitor, partial curve]"}, {"smiles": "N=C1c2ccccc2CN1NC(=O)c1cccc(S(=O)(=O)N2CCCCC2)c1", "Potency": "inconclusive [inhibitor, full curve, poor fit]"}, {"smiles": "Cc1ccc(OCC(=O)Nc2cnn(CCCC(=O)O)c2)c([N+](=O)[O-])c1", "Potency": "inconclusive [inhibitor, full curve, poor fit]"}, {"smiles": "COc1ccc(Cl)cc1NC(=O)CCCn1c(C)c2cnn(-c3ccccc3)c(=O)c2c1C", "activity change, negative = inhibition": "inactive: -0.824%"}, {"smiles": "Cc1ccc2cc(CCNC(=O)c3cccs3)c(=O)[nH]c2c1C", "Potency": "inconclusive [inhibitor, full curve, poor fit]"}, {"smiles": "CCc1ccc(/C=C2/Sc3ccccc3N(CC(=O)NCCCN3CCOCC3)C2=O)cc1", "Potency": "inconclusive [inhibitor, single point]"}, {"smiles": "COCCN(CCOC)CC(O)COC(c1ccccc1)c1ccccc1", "note": "(centres undefined)", "Potency": "inconclusive [inhibitor, full curve, poor fit]"}, {"smiles": "N#C/C(=C(/O)CSc1ccccc1C(=O)O)c1nc2ccccc2s1", "Potency": "inconclusive [inhibitor, single point]"}, {"smiles": "COc1ccc2ccccc2c1C1CC(=O)N2CN(C)CSC2=C1C#N", "note": "(centres undefined)", "activity change, negative = inhibition": "inactive: -13.3%"}, {"smiles": "COC(=O)c1ccc(Nc2cc(C)nc3ccc(C)cc23)cc1", "activity change, negative = inhibition": "inactive: 7.77%"}, {"smiles": "O=C(NCc1ccc2c(c1)OCO2)C(c1ccco1)N(C(=O)c1csnn1)c1ccccc1", "note": "(centres undefined)", "Potency": "inconclusive [inhibitor, full curve]"}, {"smiles": "O=C(Nc1cccc(Cl)c1)Nc1nc(-c2ccccc2)cs1", "activity change, negative = inhibition": "inactive: -4.12%"}, {"smiles": "COC(=O)c1c(NC(=O)CN2CCN(S(=O)(=O)c3ccccc3[N+](=O)[O-])CC2)sc2c1CCC(C)C2", "note": "(centres undefined)", "Potency": "inconclusive [inhibitor, full curve, poor fit]"}, {"smiles": "CCOc1ccc(S(=O)(=O)NCCC(=O)NCC2COc3ccccc3O2)cc1", "note": "(centres undefined)", "activity change, negative = inhibition": "inactive: 1.11%"}, {"smiles": "Cc1cccc(C2NC(=O)c3c(sc(C)c3C)N2)c1O", "note": "(centres undefined)", "activity change, negative = inhibition": "inactive: 0.0527%"}, {"smiles": "N#CC1=C(N)Oc2c(oc(CO)cc2=O)C1c1ccccc1[N+](=O)[O-]", "note": "(centres undefined)", "activity change, negative = inhibition": "inactive: 0.624%"}, {"smiles": "CCc1ccc(S(=O)(=O)c2nnn3c2nc(NC2CCCC2)c2sccc23)cc1", "activity change, negative = inhibition": "inactive: 14.3%"}, {"smiles": "CC1CCCCC12NC(=O)N(CC(=O)NCC(=O)Nc1ccc(F)c(F)c1F)C2=O", "note": "(centres undefined)", "Potency": "inconclusive [inhibitor, partial curve]"}, {"smiles": "CCOc1ccccc1C1CC(c2ccc(Br)cc2)Nc2nc(N)nn21", "note": "(centres undefined)", "Potency": "inconclusive [inhibitor, full curve, poor fit]"}, {"smiles": "COc1ccc2nc(SCC(=O)Nc3ccc(S(=O)(=O)N4CCCC4)cc3)c(C#N)cc2c1", "Potency": "inconclusive [inhibitor, full curve, poor fit]"}, {"smiles": "Cc1nccn1CCN(C)Cc1cn(Cc2ccccc2)nc1-c1ccc2c(c1)OCO2", "Potency": "inconclusive [inhibitor, single point]"}, {"smiles": "CC1CCc2sc(C(=O)NC3CCN(Cc4ccccc4)CC3)cc2C1", "note": "(centres undefined)", "activity change, negative = inhibition": "inactive: 3.19%"}, {"smiles": "Cc1cccc(NC(=O)CN2C(=O)N/C(=C/c3ccc(C)s3)C2=O)c1", "Potency": "inconclusive [inhibitor, partial curve, poor fit]"}, {"smiles": "CCOC(=O)N1CCC(NC(=O)c2cc(C(=O)Nc3cccc(OC)c3)ccc2CO)CC1", "Potency": "inconclusive [inhibitor, full curve, poor fit]"}, {"smiles": "O=C1NC(Cc2c[nH]c3ccccc23)C(=O)N1Cc1ccc(CN2C(=O)NC(Cc3c[nH]c4ccccc34)C2=O)cc1", "note": "(centres undefined)", "activity change, negative = inhibition": "inactive: -4.98%"}, {"smiles": "CCN(CC)c1ccc(C=Nc2ccccc2C)c(O)c1", "activity change, negative = inhibition": "inactive: -13.2%"}, {"smiles": "CCN(Cc1ccccc1)C(=O)CN1C(=O)c2ccccc2S1(=O)=O", "activity change, negative = inhibition": "inactive: -8.33%"}, {"smiles": "O=C(Nc1ccc(O)c(-c2nc3ccccc3o2)c1)c1ccco1", "activity change, negative = inhibition": "inactive: -0.661%"}, {"smiles": "Cn1cc(/C=N/n2cnc3scc(-c4ccccc4)c3c2=O)c2ccccc21", "activity change, negative = inhibition": "inactive: -7.49%"}, {"smiles": "CCn1c(Cn2nnc(-c3ccccc3)n2)nnc1SCC(=O)Nc1ccccc1", "Potency": "inconclusive [inhibitor, partial curve, poor fit]"}, {"smiles": "CCOC(=O)CN(C(=O)CSc1nnc(CNc2ccc(F)cc2)n1C)c1ccccc1", "Potency": "inconclusive [inhibitor, single point]"}, {"smiles": "N#CCCN1CCCc2cc(N=Nc3ccc(C(F)(F)F)cc3)ccc21", "Potency": "inconclusive [inhibitor, full curve]"}, {"smiles": "Clc1ccc(CSc2nnc([C@@H]3CCCN3)o2)cc1Cl", "Potency": "inconclusive [inhibitor, partial curve, poor fit]"}, {"smiles": "CC1Cc2c([nH]c3ccccc23)C(=O)N1", "note": "(centres undefined)", "Potency": "inconclusive [inhibitor, single point]"}, {"smiles": "CCOC(=O)c1ccc2c(c1)sc(=NC(=O)c1ccco1)n2CCOC", "Potency": "inconclusive [inhibitor, full curve]"}, {"smiles": "N#CC1=C(N)Nc2ncnn2C1c1ccccc1", "note": "(centres undefined)", "Potency": "inconclusive [inhibitor, partial curve, poor fit]"}, {"smiles": "CC1CCC2C(=O)N(c3ccc(NC4CCN(Cc5ccccc5)CC4)c([N+](=O)[O-])c3)C(=O)C2C1", "note": "(centres undefined)", "activity change, negative = inhibition": "inactive: 6.46%"}]}]}
